Test results as given in the RNAGym collection of RNA variant scans (doi:10.7554/elife.90254).
Read counts are not given, so values of variants with three or more changes are uncertain.

B1: LINE1-mini (parent)
chain: GGCAGAGCUCAACACAGCGUGGCAAAGUGGCUGUGGCUAGACUGCC

Variants of: B1
Assay: self-cleavage, relative activity (ratio to wild type); higher = more cleavage; in vitro, sequencing; the parent is a self-cleaving ribozyme

Row | Variant | self-cleavage
1 | G7C C10U A25G G27C | 0.02
2 | G7C C13G C23A U32C | 0.01
3 | G7C A12C C18A G30C | 0.03
4 | G7A G21A C46G | 0.11
5 | G7A C31G U32G U34A C46G | 0.06
6 | G7A G21U G27U C37A | 0.13
7 | G7A C13A U32G | 0.07
8 | G7A G22U C31U | 0.28
9 | G7A C31A A41G | 0
10 | G7A G21U U32A U38A G44C | 0.05
11 | G7C A16G C18U G33U | 0.02
12 | G7C A11G C23U G36C C37G C46A | 0.01
13 | G7C A12U G22C G35A | 0.18
14 | G7C A16U G22U | 0.07
15 | G7A G35U G40U | 0.03
16 | G7A G21U G22A G29C U38C C46G | 0.03
17 | G7C C8A C13U U32A | 0.08
18 | G7C C8G U20G A24C G44A | 0.11
19 | G7C C10U G29A C42U C46U | 0.02
20 | G7A G22C G33C C37G | 0.06
21 | G7A C15A G19C G44U | 0.21

Row | Variant | self-cleavage
22 | G7A G22A G44A | 0.28
23 | G7A G22A G44U | 0.16
24 | G7A G30A G40U | 0.42
25 | G7A G19U C45U | 0.13
26 | G7A G17C G21C C23G A25C | 0.18
27 | G7A U9G A41U U43A | 0.08
28 | G7C C13A U34G | 0.04
29 | G7A C37U G40C | 0.32
30 | G7A G36U U43A | 0.4
31 | G7A U9G G40U | 0.05
32 | G7A G17U A41U | 0.09
33 | G7A C15A A16U G17U U32C C37U U43A | 0.16
34 | G7A G21A A24C G40C | 0.08
35 | G7A C18G U28G G35A C45U | 0.08
36 | G7C C8G U20A | 0.15
37 | G7A C13U G19U G27C G36C C42G | 0.07
38 | G7C C10A G22A C37A | 0.02
39 | G7A G19A C45A | 0.21
40 | G7A C15A G17U C23A A24C C37A | 0.06
41 | G7C A14G A25G U28A C31A G36U | 0
42 | G7C C10U C15U G19U | 0.04

Row | Variant | self-cleavage
43 | G7A C18A G35U U43A | 0.27
44 | G7C A14C U32C U43C C45G | 0.03
45 | G7A U9A G40A | 0.14
46 | G7A G17A G29C G35C C45A | 0.07
47 | G7A G17C G29A G30U U43A | 0.06
48 | G7A U20C G27C | 0.09
49 | G7A U34A G36C | 0.02
50 | G7A G21C A24G G35C G40A U43G | 0.07
51 | G7C C13A A16G C18G | 0.06
52 | G7A G17A U38G | 0.01
53 | G7A C18A G44U | 0.05
54 | G7C C10G C13U U38C G40C | 0
55 | G7A G35C U43C | 0.33
56 | G7C A14U G22U C31U | 0.04
57 | G7A C18U C42A | 0.05
58 | G7A U9G C15A | 0.01
59 | G7A C31A C42G C45G | 0.06
60 | G7C A16C C23G A24U A26U C31A U34C | 0.01
61 | G7A C15U U20C U43A | 0.08
62 | G7A G17U G19A | 0.26
63 | G7A G29C G30U G40U | 0.42

Row | Variant | self-cleavage
64 | G7C A25U G30C G36C C37U | 0.06
65 | G7A U9A A16G G22A G30U | 0.03
66 | G7C C10G A11G G21C U32A | 0.01
67 | G7A U20G C23G | 0.28
68 | G7A G19A U28G | 0.06
69 | G7C C10A G40U | 0.03
70 | G7C A16C U34A | 0.01
71 | G7C A12G A39G | 0.14
72 | G7A G30C C37A A39C | 0.03
73 | G7A G29C C46A | 0.11
74 | G7A C23U A41U C42U C46A | 0.06
75 | G7A C31A G40U | 0.09
76 | G7C A16G U32C G35U | 0.06
77 | G7A G40C U43C C45A | 0.05
78 | G7A U9A U38A C45U | 0.11
79 | G7A G33C A39G | 0.22
80 | G7C C10U G19A | 0.05
81 | G7A C15G A26U | 0.42
82 | G7A G27A U34C C45G | 0.05
83 | G7C A12C A14U G30U U38A | 0
